# B1: Ovalbumin: ovalbumin antigen, 20 μg, immunization material given alone (protein, UniProt P01012 2-386, looked up)
# Ovalbumin: GSIGAASMEFCFDVFKELKVHHANENIFYCPIAIMSALAMVYLGAKDSTRTQINKVVRFDKLPGFGDSIEAQCGTSVNVHSSLRDILNQITKPNDVYSFSLASRLYAEERYPILPEYLQCVKELYRGGLEPINFQTAADQARELINSWVESQTNGIIRNVLQPSSVDSQTAMVLVNAIVFKGLWEKAFKDEDTQAMPFRVTEQESKPVQMMYQIGLFRVASMASEKMKILELPFASGTMSMLVLLPDEVSGLEQLESIINFEKLTEWTSSNVMEERKIKVYLPRMKMEEKYNLTSVLMAMGITDVFSSSANLSGISSAESLKISQAVHAAHAEINEAGREVVGSAEAGVDAASVSEEFRADHPFLFCIKHIATNAVLFFGRCVSP
# Tested on: B16Ova melanoma tumor cells
# Assay: Mouse prophylactic anti-tumor immunization model (Example 9)
# Format: in vivo, C57/B1 male mice
# Details: 20 μg ovalbumin alone or + 1.0 mg/Kg Cmpd of Example 1, two boosts at two week intervals; 4E5 B16Ova cells intradermally; 11 days after tumor injection; product of major and minor diameters
# Procedure: One week following the final boost, each mouse was injected intradermally with 4E5 B16Ova melanoma tumor cells. Mice were sacrificed 11 days following tumor injection, tumors were measured at their major and minor diameters, and the products of the two measurements were determined. The mean tumor size in mm^2+/−standard deviation (s.d.) for each group was determined.
row,Molecule,Mean Tumor Size (s.d.)
1,"CCCCCCCCCCCCCCCCCC(=O)NCCCCOn1c(CCCC)nc2c(N)nc3ccccc3c21 [N-(4-{[4-amino-2-butyl-1H-imidazo[4,5-c]quinolin-1-yl]oxy}butyl)octadecanamide]",0.99 (0.81) mm^2
2,B1,10.18 (8.95) mm^2

# Reference: patent US10383938B2 (priority 2010, dated 2019)
